Measured values reported in the RNAGym collection of RNA variant scans (doi:10.1093/nar/gkz1192).
Read counts are not given, so values of variants with three or more changes are uncertain.

B1: CPEB3 Ribozyme (parent)
chain: UAACAGGGGGCCACAGCAGAAGCGUUCACGUCGCAGCCCCUGUCAGAUUCUGGUGAAUCUGCGAAUUCUGCUGUAUAUCUC

Variants of: B1
Test: self-cleavage, relative activity (ratio to wild type); higher = more cleavage; in vitro, sequencing
Procedure, shortened: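 Barcoded CPEB3 ribozyme mutants, produced by rounds of error-prone PCR, self-cleaved while being transcribed with T7 RNA polymerase for 5 hours at 37°C and during a subsequent 15 min DNase I step before EDTA was added. Sequencing of template-switched cDNA on Illumina gave cleaved and total reads, and DNA sequencing assigned barcodes to variants. Each variant's relative activity is its cleaved/total read fraction divided by the unmutated ribozyme's fraction, averaged across three batches. A variant needed a minimum of 5 reads.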
For A28G C40U G53C U78G, the self-cleavage was 0.32.
With A28G A35G U54G A65G the self-cleavage was 0.5.
G30A G53A U60A gave a self-cleavage of 0.2.
A28G C29U G42A U43G U58C showed a self-cleavage of 0.27.
A28G A64U U74C U78C showed a self-cleavage of 0.39.
In the case of C29U U67A U69C, the self-cleavage is reported as 0.1.
Variant A28U U43C G63U has a self-cleavage of 0.79.
A28U A35U A45G C62U U69C U74C showed a self-cleavage of 0.09.
In the case of A28G U31C U58C, the self-cleavage is reported as 0.16.
Variant C29A A47G U49C has a self-cleavage of 0.26.
A28G U31A A75G gave a self-cleavage of 0.35.
For A28G U41G U51A, the self-cleavage was 0.45.
Variant A28U U69C U72C has a self-cleavage of 0.2.
For C27U G30A A47G, the self-cleavage was 0.27.
Variant A28G U31A U67C has a self-cleavage of 0.15.
A28C A47G U60A U66A showed a self-cleavage of 0.18.
C29U U41A C44G U48C A57G U78A gave a self-cleavage of 0.13.
Variant C29G A65G U76A has a self-cleavage of 0.32.
Work on G30A U49C U69A U76G yielded a self-cleavage of 0.
For A28G C29G C44U U48C U51A G52U U67C, the self-cleavage was 0.03.
For A28G C40U A57G U58C, the self-cleavage was 0.1.
With G30C U31C A45G the self-cleavage was 0.18.
Variant G30U A35G A56U U78C has a self-cleavage of 0.06.
Work on C29U A65G U80C yielded a self-cleavage of 0.17.
Work on C29U A45G U76C yielded a self-cleavage of 0.42.
With G30A U49C U80C the self-cleavage was 0.16.
C29U C32A C38A showed a self-cleavage of 0.2.
For A28G A65U U80A, the self-cleavage was 0.18.
A28G A56U C68U gave a self-cleavage of 0.15.
C29A U48C A65G U78A showed a self-cleavage of 0.06.
Variant C27U U31A A35U U67G G70C has a self-cleavage of 0.04.
Work on A28C A35G U69C U72A yielded a self-cleavage of 0.24.
Variant U26G C32A U41A U54C G63A has a self-cleavage of 0.11.
For A28G U41C G53A A56G, the self-cleavage was 0.31.
In the case of G30C U48G U74C, the self-cleavage is reported as 0.15.
For A28C U49C U78C, the self-cleavage was 0.13.
With A28G C38U U43C A47G U67C the self-cleavage was 0.15.
Variant A28U A47G U72C has a self-cleavage of 0.45.
For A28U U31C U74A, the self-cleavage was 0.65.
With A28C G30U U43C A47G U49A A57G the self-cleavage was 0.12.
With A28G U31A A56G A64G the self-cleavage was 0.14.
In the case of C29A U54C U72A U74G, the self-cleavage is reported as 0.55.
A28U C29U A56G U60A U69C showed a self-cleavage of 0.1.
In the case of C29U A47G U78C C81A, the self-cleavage is reported as 0.6.
In the case of A28G U41C U67A, the self-cleavage is reported as 0.34.
In the case of U26C U72A U78C, the self-cleavage is reported as 0.33.
Variant U26G A35U U72C has a self-cleavage of 0.08.
A28G A64G U66C gave a self-cleavage of 0.09.
A28U A35G G55U U69A gave a self-cleavage of 0.46.
Work on A28G U31A A35G A45G G63U U67A U69A yielded a self-cleavage of 0.15.
In the case of A28U U72A A77U, the self-cleavage is reported as 0.13.
Work on C29A U41A U51A U72C yielded a self-cleavage of 0.13.
G30A U43A U74C U76C gave a self-cleavage of 0.27.
For A28G A35G C37U U43C, the self-cleavage was 0.44.
In the case of C29U U48A A57G, the self-cleavage is reported as 0.07.
For A28C U54A U67C, the self-cleavage was 0.12.
For A28G C32U A57U U78C, the self-cleavage was 0.1.
Variant A28G U60C U67A has a self-cleavage of 0.06.
For C29U U41C A75G, the self-cleavage was 0.38.
U26G U49C U51C A56G showed a self-cleavage of 0.16.
A28U A45G U54C showed a self-cleavage of 0.41.
With A28U G46C U48C G52A U72A U80C the self-cleavage was 0.17.
With A28G C40U U60C A64G U78C the self-cleavage was 0.12.
A28U U41A U43G U58C showed a self-cleavage of 0.18.
Variant A28U A45G A57G has a self-cleavage of 0.31.
A28G A35G C39A U41C A77G showed a self-cleavage of 0.55.
For A28G A35U U51A, the self-cleavage was 0.24.
C29G U49C U69A showed a self-cleavage of 0.18.
In the case of G30A C34A C68A, the self-cleavage is reported as 0.12.
Work on A28U A57G U60C U72G yielded a self-cleavage of 0.16.
G30U C32A A75G gave a self-cleavage of 0.18.
Work on G30C U49C U51G U72C yielded a self-cleavage of 0.12.
Work on A28G C29G A64G A75G yielded a self-cleavage of 0.13.
Variant C29U U48C U66C U80C has a self-cleavage of 0.33.
Variant A28U U51G A64G has a self-cleavage of 0.83.
For A28G U43C U49C U69C U80C, the self-cleavage was 0.35.
For A28G C29G A56G, the self-cleavage was 0.62.
C27A A28U C29U U43C A57U showed a self-cleavage of 0.14.
C29U A45U C81A gave a self-cleavage of 0.09.
With A28G U31A U67A U69A the self-cleavage was 0.06.
A28U A35G A64G U78C gave a self-cleavage of 1.21.
C29U A57G U80C gave a self-cleavage of 0.44.
With A28G U54A G63C A64U U72A the self-cleavage was 0.1.
Variant G30A U49A A57G A65G has a self-cleavage of 0.08.
